For one assay, the target named is Nip1-GFP (S. cerevisiae) (UniProt P32497). Description: pull-down; Prt1-GFP and Nip1-GFP purified from yeast cells and precipitated, incubated with recombinantly expressed GST-Rli1, without or with AMP-PNP; western blot; only the target purified. (In general: Immunoblotting shows a protein as a band on a membrane.)
Assay [1] has as its target Prt1-GFP (S. cerevisiae) (UniProt P06103). The assay is described as above.
The next assay concerns the target T1, TAP-Dbp5 (S. cerevisiae) (UniProt P20449).
T1 sequence: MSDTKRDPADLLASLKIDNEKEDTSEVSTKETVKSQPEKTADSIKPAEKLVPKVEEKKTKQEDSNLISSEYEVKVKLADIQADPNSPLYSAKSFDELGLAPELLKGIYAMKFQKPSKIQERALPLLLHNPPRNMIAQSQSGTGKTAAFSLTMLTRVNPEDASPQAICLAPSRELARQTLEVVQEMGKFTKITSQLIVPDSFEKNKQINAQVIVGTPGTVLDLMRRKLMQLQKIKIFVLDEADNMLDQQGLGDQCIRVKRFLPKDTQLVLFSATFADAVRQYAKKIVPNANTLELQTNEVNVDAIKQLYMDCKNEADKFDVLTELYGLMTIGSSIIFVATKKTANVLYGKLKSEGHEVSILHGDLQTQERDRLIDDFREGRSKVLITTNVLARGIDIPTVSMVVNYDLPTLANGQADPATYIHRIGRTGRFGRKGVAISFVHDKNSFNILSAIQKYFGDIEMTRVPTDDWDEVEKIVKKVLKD
Description: co-IP; yeast lysate; TAP-Dbp5 precipitated (IgG-Sepharose), in the presence of RNase A (0.2 mg/ml, 30 min at 4°C), western blot.

Protein sequences, listed by entry. Tags and fused reporters are not part of them. Lines headed by an entry give the natural chain unless they say otherwise; changes in a name come on top.
UniProt P32497: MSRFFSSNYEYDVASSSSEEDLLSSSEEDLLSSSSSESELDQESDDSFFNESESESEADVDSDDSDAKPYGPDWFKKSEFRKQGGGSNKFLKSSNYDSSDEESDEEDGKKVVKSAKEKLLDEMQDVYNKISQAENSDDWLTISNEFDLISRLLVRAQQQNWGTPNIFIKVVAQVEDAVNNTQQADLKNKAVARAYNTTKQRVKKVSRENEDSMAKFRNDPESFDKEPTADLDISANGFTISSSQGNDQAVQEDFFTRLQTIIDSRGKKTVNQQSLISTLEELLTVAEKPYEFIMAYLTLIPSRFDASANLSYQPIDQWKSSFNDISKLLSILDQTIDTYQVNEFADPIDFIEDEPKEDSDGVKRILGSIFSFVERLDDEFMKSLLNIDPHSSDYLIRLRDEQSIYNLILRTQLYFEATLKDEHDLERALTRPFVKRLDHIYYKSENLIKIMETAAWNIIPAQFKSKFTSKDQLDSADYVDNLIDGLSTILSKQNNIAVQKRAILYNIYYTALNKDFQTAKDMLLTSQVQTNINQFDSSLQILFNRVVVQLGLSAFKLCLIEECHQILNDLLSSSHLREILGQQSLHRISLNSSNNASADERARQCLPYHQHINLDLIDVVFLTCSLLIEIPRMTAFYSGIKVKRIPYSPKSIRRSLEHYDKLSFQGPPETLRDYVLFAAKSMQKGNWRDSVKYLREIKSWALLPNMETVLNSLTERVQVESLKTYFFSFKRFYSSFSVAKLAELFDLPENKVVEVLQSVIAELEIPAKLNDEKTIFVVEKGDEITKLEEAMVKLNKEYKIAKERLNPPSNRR
UniProt P05453: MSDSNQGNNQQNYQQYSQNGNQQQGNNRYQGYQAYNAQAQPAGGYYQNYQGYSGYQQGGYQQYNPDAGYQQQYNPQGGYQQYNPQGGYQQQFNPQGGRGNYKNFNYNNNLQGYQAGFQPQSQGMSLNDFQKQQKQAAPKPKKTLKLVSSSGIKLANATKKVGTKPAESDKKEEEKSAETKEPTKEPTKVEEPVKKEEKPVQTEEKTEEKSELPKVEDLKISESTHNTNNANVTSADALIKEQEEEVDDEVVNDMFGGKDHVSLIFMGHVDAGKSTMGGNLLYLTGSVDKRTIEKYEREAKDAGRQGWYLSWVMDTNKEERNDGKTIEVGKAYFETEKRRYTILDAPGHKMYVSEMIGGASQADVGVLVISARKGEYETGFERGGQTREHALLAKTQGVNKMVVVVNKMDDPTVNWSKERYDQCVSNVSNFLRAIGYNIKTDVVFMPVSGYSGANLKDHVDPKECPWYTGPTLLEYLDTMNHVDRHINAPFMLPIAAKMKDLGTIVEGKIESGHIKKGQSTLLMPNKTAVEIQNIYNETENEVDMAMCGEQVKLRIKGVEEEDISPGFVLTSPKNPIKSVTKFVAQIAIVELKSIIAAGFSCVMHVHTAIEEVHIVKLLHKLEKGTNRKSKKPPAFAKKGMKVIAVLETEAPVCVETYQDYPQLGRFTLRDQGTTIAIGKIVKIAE
UniProt Q05775: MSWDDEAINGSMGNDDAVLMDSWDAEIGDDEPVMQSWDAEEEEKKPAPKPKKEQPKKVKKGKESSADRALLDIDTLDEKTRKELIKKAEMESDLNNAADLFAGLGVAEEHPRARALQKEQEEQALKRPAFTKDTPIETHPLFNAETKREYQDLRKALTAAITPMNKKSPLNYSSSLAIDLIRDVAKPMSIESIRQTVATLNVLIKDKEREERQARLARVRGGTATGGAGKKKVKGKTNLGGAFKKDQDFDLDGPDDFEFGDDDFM
UniProt P12385: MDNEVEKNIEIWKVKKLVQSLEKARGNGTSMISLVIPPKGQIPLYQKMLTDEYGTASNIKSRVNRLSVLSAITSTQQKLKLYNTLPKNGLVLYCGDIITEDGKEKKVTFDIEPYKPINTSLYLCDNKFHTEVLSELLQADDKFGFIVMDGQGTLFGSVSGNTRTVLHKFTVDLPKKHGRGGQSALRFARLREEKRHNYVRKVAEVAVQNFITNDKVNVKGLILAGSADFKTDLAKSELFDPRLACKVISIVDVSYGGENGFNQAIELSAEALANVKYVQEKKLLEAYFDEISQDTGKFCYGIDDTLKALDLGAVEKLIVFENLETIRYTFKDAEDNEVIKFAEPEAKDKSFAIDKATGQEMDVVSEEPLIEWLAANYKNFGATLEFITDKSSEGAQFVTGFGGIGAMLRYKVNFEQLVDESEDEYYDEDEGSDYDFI
UniProt Q03195: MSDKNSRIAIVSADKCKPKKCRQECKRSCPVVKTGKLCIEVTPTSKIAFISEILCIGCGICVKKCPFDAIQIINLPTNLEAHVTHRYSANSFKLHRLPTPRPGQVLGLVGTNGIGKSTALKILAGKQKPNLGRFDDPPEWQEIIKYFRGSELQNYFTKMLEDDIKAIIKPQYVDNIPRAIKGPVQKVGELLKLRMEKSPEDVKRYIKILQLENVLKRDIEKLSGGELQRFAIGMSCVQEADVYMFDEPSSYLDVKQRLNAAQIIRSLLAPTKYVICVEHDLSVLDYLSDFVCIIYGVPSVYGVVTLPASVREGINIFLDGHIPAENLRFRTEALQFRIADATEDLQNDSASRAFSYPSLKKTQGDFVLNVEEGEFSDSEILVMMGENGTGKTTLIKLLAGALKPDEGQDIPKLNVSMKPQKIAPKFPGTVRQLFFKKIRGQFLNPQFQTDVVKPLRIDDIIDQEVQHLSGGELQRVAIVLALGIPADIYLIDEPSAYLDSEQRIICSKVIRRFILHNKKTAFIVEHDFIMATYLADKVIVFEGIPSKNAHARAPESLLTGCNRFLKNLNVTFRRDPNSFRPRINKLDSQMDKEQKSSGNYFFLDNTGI

For another assay, the target named is T2, uS3-GFP (S. cerevisiae) (UniProt P05750).
T2 sequence: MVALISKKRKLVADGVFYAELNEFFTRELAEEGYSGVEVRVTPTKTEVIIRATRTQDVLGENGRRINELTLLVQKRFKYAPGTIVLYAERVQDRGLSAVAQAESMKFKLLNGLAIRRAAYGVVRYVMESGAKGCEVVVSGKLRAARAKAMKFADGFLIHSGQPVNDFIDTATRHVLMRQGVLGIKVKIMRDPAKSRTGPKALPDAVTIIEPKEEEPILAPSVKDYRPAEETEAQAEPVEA
Description: co-IP; yeast lysates; GFP-Trap_A beads (GFP-tagged baits) or IgG-Sepharose (TAP-tagged baits), 3 h at 4°C, western blot; wild type and the strains sup45-2, rat8-2, rat7ΔN shifted to 37°C for 1 h; also 0.5 mg/ml cycloheximide for 30 min; also high copy RLI1.

For assay [2], the target named is T3, Dbp5 as precipitated in the Dbp5 IPs (tag not told) (S. cerevisiae) (UniProt P20449).
T3 sequence: T1 sequence
The assay is described as above.

Assay [3] addresses T4, GST-Dbp5 (S. cerevisiae) (UniProt P20449).
T4 sequence: T1 sequence
Nature of the assay: pull-down; GST-tagged proteins or GST on GSTrap 4B Glutathione Sepharose beads, incubated with E. coli lysates of His-eRF1 or His-eRF1Δ25 for 2 h at 4°C; 50 mM Tris-HCl pH 7.5, 150 mM NaCl, 2 mM MgCl, 5% glycerol, 1 mM DTT, 0.2% NP-40; with 1 mM AMP-PNP; western blot; only the target purified.

The target in assay [4] is GST-eRF3 (pGEX4T1-GST-SUP35) (S. cerevisiae) (UniProt P05453). The description is as above.
For assay [5], the target named is T4, GST-Dbp5 (S. cerevisiae). Description: pull-down; as a4, but without AMP-PNP; only the target purified.
Assay [6] concerns the target GST-eRF3 (pGEX4T1-GST-SUP35) (S. cerevisiae) (UniProt P05453). Described as above.
For assay [7], the target named is T4, GST-Dbp5 (S. cerevisiae). Description: pull-down; competition assay: eRF1 lysate incubated with GST-Dbp5 bound to the GSTrap for 20 min at 4°C, then purified eRF3ΔN65 added in increasing amounts, 1 h at 4°C; 1 mM AMP-PNP; only the target purified.
For a further assay, the target named is Hcr1-GFP (S. cerevisiae) (UniProt Q05775). Nature of the assay: co-IP; yeast lysates; GFP-Trap_A beads (GFP-tagged baits) or IgG-Sepharose (TAP-tagged baits), 3 h at 4°C, western blot; wild type and the strains sup45-2, rat8-2, rat7ΔN shifted to 37°C for 1 h; also 0.5 mg/ml cycloheximide for 30 min; also high copy RLI1.
The next assay deals with eRF1-GFP (S. cerevisiae) (UniProt P12385). The description is as above.
For assay [8], the target named is T5, uL29 as bait of the co-IP of Figure 6C (tag not told) (S. cerevisiae) (UniProt P0CX84).
T5 sequence: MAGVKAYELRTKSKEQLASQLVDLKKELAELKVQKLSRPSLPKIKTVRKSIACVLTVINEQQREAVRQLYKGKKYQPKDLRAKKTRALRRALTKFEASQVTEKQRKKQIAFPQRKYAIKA
The description is as above.

In assay [9] the target is Prt1-GFP (S. cerevisiae) (UniProt P06103). Described as above.
Assay [10] has the same target. Nature of the assay: co-IP; yeast lysate of sup45-2 cells; Prt1-GFP precipitated, western blot.

No constants are given. Whether binding was seen depends on the method and setting. In cells and extracts the contact can be indirect. Some results given as binding are weak or reduced against the parent protein; the word gives no strength. For part of these data: Where a sequence is shown, tags or fusion partners need not be part of it.

As for “GST-Rli1 (pGEX-6P-1-GST-RLI1) (from UniProt Q03195 1-608)”, the binding entry with Nip1-GFP (S. cerevisiae) and in the assay with Prt1-GFP (S. cerevisiae) [1] was “binds” each time.

Consider “eukaryotic release factor 1 (eRF1) (from UniProt P12385 1-437)”, for which the binding result (with TAP-Dbp5 (S. cerevisiae); with uS3-GFP (S. cerevisiae); in assay [2]) was “binds” throughout.

For “His-eRF1 (pET28a-HIS6-SUP45) (from UniProt P12385 1-437)”, the binding entry with GST-Dbp5 (S. cerevisiae) [3] is listed as “binds”; in [4], “binds”; with GST-Dbp5 (S. cerevisiae) [5] it was “no binding (condition: without AMP-PNP)”; in assay [6], “binds”; with GST-Dbp5 (S. cerevisiae) [7], “binds”.

Regarding “His-eRF1Δ25 (pET15b-HIS6-SUP45 delta 25; eRF1 lacking 25aa at the C-terminus) (from UniProt P12385 1-412) (domain or fragment)”, the binding result (in the assay with GST-Dbp5 (S. cerevisiae) [3]; in [4]) was “no binding” in each case.

Consider “eukaryotic release factor 3 (eRF3) (from UniProt P05453 1-685)”, for which the binding entry is “binds” in the assay with Hcr1-GFP (S. cerevisiae); “binds” with uS3-GFP (S. cerevisiae); “binds” with eRF1-GFP (S. cerevisiae); “binds” in [8]; “binds” with Prt1-GFP (S. cerevisiae) [9]; “no binding (condition: in sup45-2 cells)” in the assay with Prt1-GFP (S. cerevisiae) [10].

As for Rli1-HA (from UniProt Q03195 1-608), the binding result is “binds” with TAP-Dbp5 (S. cerevisiae), “binds” with Prt1-GFP (S. cerevisiae) [9] and “no binding (condition: in sup45-2 cells)” with Prt1-GFP (S. cerevisiae) [10].

The values are drawn from paper PMC6511868.
